# Assay results from PubChem BioAssay (NCATS).
# Records with an inconclusive call do not appear. Calls follow the shape of the dose curve; as a rule, active = well fitted cell-killing curve with a large enough effect; inconclusive = small, poorly fitted or top-dose-only effect, or effect the other way; inactive = no such curve, though single readings can be large or run the other way. The source holds more than one record for some entries. The other results are left out here. There may be further records. Values that stand side by side are repeated measurements in other runs, samples, wells, individuals or studies.
# Experiment: Cell Viability qHTS for small molecule stabilizers of the endoplasmic reticulum resident proteome (AID 1508629);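 also: human SH-SY5Y neuroblastoma cells carrying the GLuc-SERCaMP reporter; compound exposure about 46 h in total before the viability read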
# Details: cell viability counter-screen, 100 nM thapsigargin for final 4 h
# % is scaled to controls: 0 for no effect and ±100 for the full control effect.
smiles,measurement,value
CC(C)(c1ccc(O)cc1)c1ccc(O)cc1,max response,"inactive: 22.5, 33.7, 22.1, 11.8, 46.1% [separate samples]"
